The source gives no read counts; variants with many changes may rest on few reads.
B1: CPEB3 Ribozyme (parent)
chain: UAACAGGGGGCCACAGCAGAAGCGUUCACGUCGCAGCCCCUGUCAGAUUCUGGUGAAUCUGCGAAUUCUGCUGUAUAUCUC

Variants of: B1
Test: self-cleavage, relative activity (ratio to wild type); higher = more cleavage; in vitro, sequencing
Summary of the method: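 CPEB3 self-cleaving ribozyme mutant libraries were made by rounds of error-prone PCR, barcoded, and transcribed in vitro with T7 RNA polymerase for 5 hours at 37°C. Cleavage occurred during transcription and a 15 min DNase I step before EDTA stop. RNAs were reverse transcribed with template switching and Illumina-sequenced, with DNA sequencing mapping barcodes to variants. Relative activity is the variant's cleaved/total read fraction divided by wild type's (minimum 5 reads), averaged across three batches.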

Variant | self-cleavage
UAACAGGGGACUACAGCAGAAGCGUUCACGUCGCAGCCCCUGUCAGACUCUGGUGAAUCUGCGAAUUCAGCUGUAUAUCUC [G10A C12U U48C U69A] | 0.05
UAACAGGGGACCAAAGCAGAAGCGUUCAUGUCGCAGCCCCUGUCAGAUUCUGGUGAAUCUGCGAAUUCUGCUGUUUAUCUC [G10A C14A C29U A75U] | 0.04
UAACAGGGGCCCACAGCAGAAGCGUUCACGUCGCAGCCCCUGUCAGAUACUGGUGAAUCUGCGAAUUCUGCUGUAUAUAUC [G10C U49A C79A] | 0.07
UAACAGGGGACCACAGCAGAAGCGCUCACGUCGCAGCCCCUGUCAGAUUCUGGUGAAUCUGCGAAUUCUGCUGUAAAUCUC [G10A U25C U76A] | 0.07
UAACAGGGGACCACAGCAGAAGCGUUCACGUCGCAGCCUCUGUCAGAUUCAGGUGAAACUGCGAAUUCUGCCGUAUAUCUC [G10A C39U U51A U58A U72C] | 0.06
UAACAGGGGCCCACGGCAGAGGCGUUCACGUCGCAGCCCCUGUCAGAUUCUGGUGAAUCUGCUCAUGCUGCUGUAUAUCCC [G10C A15G A21G G63U A64C U67G U80C] | 0.05
UAACAGGGGCCCACAGCAGAAGCGUACACGUCGCAGCCCCUGUCAGAUACUAGUGAAUCUACGAAUUUUGCUGUAUAUCUC [G10C U26A U49A G52A G61A C68U] | 0.32
UAACAGGGGACCACAGCAGAAGCGUUCAUGUCGCAGCCCCUGUCAGAUUCUGGUGAAUCUGCGAAUUCUGCUGUAUGUCUC [G10A C29U A77G] | 0.17
UAACAGGGGCCCACAGCAGAGGCGUUCACGUCGCAGCCCCUGUCAGAUUCUGGUGGAUCUGCGAAUUCUGCUGUAUAUCUC [G10C A21G A56G] | 0.08
UAACAGGGGACCACAGCAGAAGCGUCCACGUCGCAGCCCCUGUCAGAUUCUGGUGAAUCUGCGAGUUCUGCUGUAUAUCUC [G10A U26C A65G] | 0.26
UAACAGGGGACCACAGCAGAAGCGUUCACGUCACAGCCCCUGUCAGGUUCUGGUGAAUCUGCGAAUUCUGCCGUAUAUCCC [G10A G33A A47G U72C U80C] | 0.11
UAACAGGGGACCACAGCAGAAGCGUUCACGUCGCAGCCCUUGUCAGAUUCAGGUGAAUCUGCGUAUUCUGCUGUAUAUCUC [G10A C40U U51A A64U] | 0.05
UAACAGGGGACCACAGCAGAAGCGUUCACGUCGCAGCCCCUGUCAGAUACUGGUGGAUCUGCGAAUUCUCCUGUAUAUCUC [G10A U49A A56G G70C] | 0.12
UAACAGGGGACCACAGCAGAAGCGUUCACGUCGCAGCCCCUGUCAGAUUCUGGUGAAUCUGCGAAUUCCGCCGUAUAUCUC [G10A U69C U72C] | 0.14
UAACAGGGGCCCACAGCAGAAGCGUUCACGUCGCAGCCCCUGUCAGAUUCUGGUGAAUCAGCGAAUUCUGCUGUACAUCUC [G10C U60A U76C] | 0.14
UAACAGGGGACCACAGCAGAAGCGUUCACACCGCAGCCCCUGUCAGGUUCUGGUGAAUCUGCGAUUUCUGCAGUAUACCUC [G10A G30A U31C A47G A65U U72A U78C] | 0.06
UAACAGGGGCCCACAACAGAAGCGUUCACGUCGCAGCCCCUGCCAGAUUCUGGUGAACCUGCGAAUUCUGCUGUAUAUCUC [G10C G16A U43C U58C] | 0.14

Variant | self-cleavage
UAACAGGGGCCCACAGCAGCAGCGUUCACGUCGCAGCCCCUGUCUGAUUCUGGUGGAUUUGCGAAUCCUGCUGUAUAUCUC [G10C A20C A45U A56G C59U U67C] | 0.02
UAACAGGGGACCACAGCAGAAGCGUUCACGCCGCUGCCCCUGUCAGAUUCUGGUGAAUCCGCGGAUUCUGCUGUAUAUCUC [G10A U31C A35U U60C A64G] | 0.09
UAACAGGGGACCACAGCAGAAGCGUUCACGUCGCAGCCCCUGUCAGAUUCCGGUGAAUCCGCGAAUUCUACUGUAUACCUC [G10A U51C U60C G70A U78C] | 0.26
UAACAGGGGACCAUAGCAGAAGCGUUCACGUCGCAGCCCCUGUCAGAUUCUGGUGAAUCUGCGAAUUCCUCUGUAUAUCUC [G10A C14U U69C G70U] | 0.16
UAACAGGGGCCCACAGCAGAAGCGUUCACGUCGCAGCCCCUGUCAGAUUCUGGUGAAUCUGCGAGUUCUGCUGUGUAUCUC [G10C A65G A75G] | 0.14
UAACAGGGGCCCACAGCAGAAGCGUUCACGCCGCAGCCCCUGUCAGAUUCUGGUGAAUCUGCGAAUACUGCUGUAUGUCUC [G10C U31C U67A A77G] | 0.08
UAACAGGGGACCACAGCAGAAGCGUUCACGUCGCAGCCCCUGUCAGACUCUGGUGAAUCUGCGACUCCUGCUGUAUUUCUC [G10A U48C A65C U67C A77U] | 0.03
UAACAGGGGCCCAUAGCAGAAGCAUUCACGUCGCAGCCCCUGUCAGAUUCUGGUGGAUCUGCGAAUUCUGCUGUAUAACUC [G10C C14U G24A A56G U78A] | 0.04
UAACAGGGGACCACAGCAGAAGCGUUCACGUCGCAGCCCCUGACAGAUUCUGGUGGAUCUGCGAAUUCUGCUGUAUGUCCC [G10A U43A A56G A77G U80C] | 0.06
UAACAGGGGCCCACAGCAGAGGCGUUCACGACGCAGCCCCUGUCAGAUUCUGGUGAAUCUGCGAAUUCUGCUGUAUAUCUC [G10C A21G U31A] | 0.19
UAACAGGGGACCACAGCAGAAGCGUUCACGUCGCAGCCCCAGACAGAUUCUGGUGAAUCUGCGAAUUCUGCAGUAUAUCUC [G10A U41A U43A U72A] | 0.04
UAACAGGGGACCACAGCAGAAGCGUCCACGUCGCAGCCCCUGCCAGAUUCUGGUGAGUCUGCGGAUUAUGCUGUAUAUCUC [G10A U26C U43C A57G A64G C68A] | 0.08
UAACAGGGGACCACAGCAGAAGCGUCCACGUCGCAGUCCCUGUCAGAUUCUGGUGAAUCUGCGAAUUCUGCUGUAUAUCUC [G10A U26C C37U] | 0.16
UAACAGGGGACCACAGCAGAAGCGUUCACGUCGCAGCCCCUGUCAGAUUCAGGUGAGUCUGCGGAUUCUGCUGUAUAUCUC [G10A U51A A57G A64G] | 0.11
UAACAGGGGACCACAGCAGAAGCGUCCACGUCGCAGCCCCUGUCAGAUCCCGGUGAAUCUGCGAAUUCUGCUGUUUAUCUC [G10A U26C U49C U51C A75U] | 0.07
UAACAGGGGCCCACAGCAGAAGGGUUCACGUCGCAGCCCCUGUCAGAUUCUGGUGAAUCUGAGAAUUCUGCUGUAUAUCUC [G10C C23G C62A] | 0.1
UAACAGGGGACCACAGCAGAAGCAUUCACGUCGCAGCCCCUGUCAGAUUCUGGUGAAUCUGCGAAUUCUGCAGUAUAUCUC [G10A G24A U72A] | 0.17

Reference: the RNAGym collection of RNA variant scans (doi:10.1093/nar/gkz1192)
